Laboratory results taken from the supplement of paper PMC10724272.
MIC of invasive clinical C. tropicalis isolates, CLSI broth microdilution (fluconazole 0.12-256 mg/L, up to 1,024 for the azole-resistant cluster and its neighbour group; other ranges not stated); higher = less susceptible. Call: susceptible or wild type [S] / resistant or non-wild type [R] by CLSI breakpoints or cut-offs; intermediate and dose-dependent carry no call. '<=' and '>=' at the end values are inferred; the source marks only some of them. Isolates are numbered anew.

What follows are test systems tested with CCCCCOc1ccc(-c2ccc(-c3ccc(C(=O)N[C@H]4C[C@@H](O)[C@@H](O)NC(=O)[C@@H]5[C@@H](O)[C@@H](C)CN5C(=O)[C@H]([C@@H](C)O)NC(=O)[C@H]([C@H](O)[C@@H](O)c5ccc(O)cc5)NC(=O)[C@@H]5C[C@@H](O)CN5C(=O)[C@H]([C@@H](C)O)NC4=O)cc3)cc2)cc1 [anidulafungin] (assay: CLSI broth microdilution.).
Test System “Candida tropicalis isolate 289 (ERG11 copies: 2, Erg11p: no key change)” has an MIC of 0.12 mg/L [S].
In the case of “Candida tropicalis isolate 342 (ERG11 copies: 2, Erg11p: no key change)”, the MIC is reported as 0.06 mg/L [S].
For “Candida tropicalis isolate 315 (ERG11 copies: 2, Erg11p: no key change)”, the MIC was 0.25 mg/L [S].
Work on “Candida tropicalis isolate 243 (ERG11 copies: 2, Erg11p: no key change)” yielded an MIC of 0.25 mg/L [S].
In the case of “Candida tropicalis isolate 51 (ERG11 copies: 2, Erg11p: no key change)”, the MIC is reported as at most 0.015 mg/L [S].
Test System “Candida tropicalis isolate 160 (ERG11 copies: 2, Erg11p: no key change)” has an MIC of 0.06 mg/L [S].
“Candida tropicalis isolate 202 (ERG11 copies: 2, Erg11p: no key change)” gave an MIC of at most 0.015 mg/L [S].
For “Candida tropicalis isolate 128 (ERG11 copies: 2, Erg11p: no key change)”, the MIC was 0.12 mg/L [S].
For “Candida tropicalis isolate 348 (ERG11 copies: 2, Erg11p: no key change)”, the MIC was 0.03 mg/L [S].
In the case of “Candida tropicalis isolate 204 (ERG11 copies: 2, Erg11p: Y132F, S154F (homozygous))”, the MIC is reported as 0.12 mg/L [S].
“Candida tropicalis isolate 47 (ERG11 copies: 8, Erg11p: Y132F, S154F (heterozygous))” gave an MIC of 0.06 mg/L [S].
For “Candida tropicalis isolate 163 (ERG11 copies: 2, Erg11p: no key change)”, the MIC was 0.25 mg/L [S].
Work on “Candida tropicalis isolate 82 (ERG11 copies: 2, Erg11p: no key change)” yielded an MIC of at most 0.015 mg/L [S].
“Candida tropicalis isolate 139 (ERG11 copies: 2, Erg11p: no key change)” gave an MIC of 0.03 mg/L [S].
“Candida tropicalis isolate 180 (ERG11 copies: 2, Erg11p: no key change)” gave an MIC of at most 0.015 mg/L [S].
“Candida tropicalis isolate 111 (ERG11 copies: 2, Erg11p: no key change)” was tested, and the MIC was at most 0.015 mg/L [S].
“Candida tropicalis isolate 195 (ERG11 copies: 2, Erg11p: no key change)” gave an MIC of 0.06 mg/L [S].
“Candida tropicalis isolate 409 (ERG11 copies: 2, Erg11p: Y132F, S154F (homozygous))” showed an MIC of at most 0.015 mg/L [S].
“Candida tropicalis isolate 434 (ERG11 copies: 6, Erg11p: Y132F, S154F, P397S (heterozygous))” gave an MIC of 0.06 mg/L [S].
“Candida tropicalis isolate 355 (ERG11 copies: 2, Erg11p: no key change)” gave an MIC of 0.12 mg/L [S].
In the case of “Candida tropicalis isolate 210 (ERG11 copies: 2, Erg11p: no key change)”, the MIC is reported as 0.12 mg/L [S].
For “Candida tropicalis isolate 317 (ERG11 copies: 2, Erg11p: no key change)”, the MIC was at most 0.015 mg/L [S].
With “Candida tropicalis isolate 270 (ERG11 copies: 2, Erg11p: no key change)” the MIC was 0.12 mg/L [S].
Test System “Candida tropicalis isolate 267 (ERG11 copies: 2, Erg11p: no key change)” has an MIC of 0.06 mg/L [S].
“Candida tropicalis isolate 100 (ERG11 copies: 2, Erg11p: no key change)” gave an MIC of 0.06 mg/L [S].
Test System “Candida tropicalis isolate 293 (ERG11 copies: 2, Erg11p: no key change)” has an MIC of 0.12 mg/L [S].
Work on “Candida tropicalis isolate 126 (ERG11 copies: 2, Erg11p: no key change)” yielded an MIC of at most 0.015 mg/L [S].

These test systems were tested with CC[C@@H]([C@H](C)O)n1ncn(-c2ccc(N3CCN(c4ccc(OC[C@@H]5CO[C@@](Cn6cncn6)(c6ccc(F)cc6F)C5)cc4)CC3)cc2)c1=O [posaconazole] (assay: CLSI broth microdilution.).
With “Candida tropicalis isolate 24 (ERG11 copies: 2, Erg11p: Y132F, S154F (homozygous))” the MIC was 0.5 mg/L [R].
In the case of “Candida tropicalis isolate 213 (ERG11 copies: 2, Erg11p: no key change)”, the MIC is reported as 0.12 mg/L [S].
With “Candida tropicalis isolate 118 (ERG11 copies: 2, Erg11p: no key change)” the MIC was 0.5 mg/L [R].
In the case of “Candida tropicalis isolate 158 (ERG11 copies: 2, Erg11p: no key change)”, the MIC is reported as 0.03 mg/L [S].
Work on “Candida tropicalis isolate 284 (ERG11 copies: 6, Erg11p: Y132F, S154F (heterozygous))” yielded an MIC of 1 mg/L [R].
With “Candida tropicalis isolate 373 (ERG11 copies: 2, Erg11p: no key change)” the MIC was 0.12 mg/L [S].
“Candida tropicalis isolate 261 (ERG11 copies: 8, Erg11p: Y132F, S154F (heterozygous))” was tested, and the MIC was 0.5 mg/L [R].
With “Candida tropicalis isolate 394 (ERG11 copies: 2, Erg11p: no key change)” the MIC was 0.03 mg/L [S].
“Candida tropicalis isolate 408 (ERG11 copies: 2, Erg11p: no key change)” gave an MIC of 0.5 mg/L [R].
In the case of “Candida tropicalis isolate 289 (ERG11 copies: 2, Erg11p: no key change)”, the MIC is reported as 0.25 mg/L [S].
“Candida tropicalis isolate 342 (ERG11 copies: 2, Erg11p: no key change)” showed an MIC of 0.25 mg/L [S].
Test System “Candida tropicalis isolate 315 (ERG11 copies: 2, Erg11p: no key change)” has an MIC of 0.12 mg/L [S].
“Candida tropicalis isolate 243 (ERG11 copies: 2, Erg11p: no key change)” was tested, and the MIC was 0.06 mg/L [S].
With “Candida tropicalis isolate 51 (ERG11 copies: 2, Erg11p: no key change)” the MIC was 0.06 mg/L [S].
“Candida tropicalis isolate 160 (ERG11 copies: 2, Erg11p: no key change)” gave an MIC of 0.5 mg/L [R].
“Candida tropicalis isolate 202 (ERG11 copies: 2, Erg11p: no key change)” showed an MIC of 0.12 mg/L [S].
For “Candida tropicalis isolate 128 (ERG11 copies: 2, Erg11p: no key change)”, the MIC was 0.03 mg/L [S].
Work on “Candida tropicalis isolate 348 (ERG11 copies: 2, Erg11p: no key change)” yielded an MIC of 0.25 mg/L [S].
For “Candida tropicalis isolate 204 (ERG11 copies: 2, Erg11p: Y132F, S154F (homozygous))”, the MIC was 0.5 mg/L [R].
In the case of “Candida tropicalis isolate 47 (ERG11 copies: 8, Erg11p: Y132F, S154F (heterozygous))”, the MIC is reported as 1 mg/L [R].
For “Candida tropicalis isolate 163 (ERG11 copies: 2, Erg11p: no key change)”, the MIC was 0.12 mg/L [S].
With “Candida tropicalis isolate 82 (ERG11 copies: 2, Erg11p: no key change)” the MIC was 0.25 mg/L [S].
“Candida tropicalis isolate 139 (ERG11 copies: 2, Erg11p: no key change)” showed an MIC of 0.25 mg/L [S].
“Candida tropicalis isolate 180 (ERG11 copies: 2, Erg11p: no key change)” showed an MIC of 0.015 mg/L [S].
“Candida tropicalis isolate 111 (ERG11 copies: 2, Erg11p: no key change)” showed an MIC of 0.015 mg/L [S].
“Candida tropicalis isolate 195 (ERG11 copies: 2, Erg11p: no key change)” gave an MIC of 0.12 mg/L [S].
“Candida tropicalis isolate 409 (ERG11 copies: 2, Erg11p: Y132F, S154F (homozygous))” gave an MIC of 0.5 mg/L [R].
“Candida tropicalis isolate 434 (ERG11 copies: 6, Erg11p: Y132F, S154F, P397S (heterozygous))” showed an MIC of 0.5 mg/L [R].
Test System “Candida tropicalis isolate 355 (ERG11 copies: 2, Erg11p: no key change)” has an MIC of 0.25 mg/L [S].
Test System “Candida tropicalis isolate 210 (ERG11 copies: 2, Erg11p: no key change)” has an MIC of 0.5 mg/L [R].
“Candida tropicalis isolate 317 (ERG11 copies: 2, Erg11p: no key change)” showed an MIC of 0.12 mg/L [S].
Work on “Candida tropicalis isolate 270 (ERG11 copies: 2, Erg11p: no key change)” yielded an MIC of 0.12 mg/L [S].
Work on “Candida tropicalis isolate 267 (ERG11 copies: 2, Erg11p: no key change)” yielded an MIC of 0.06 mg/L [S].
Test System “Candida tropicalis isolate 100 (ERG11 copies: 2, Erg11p: no key change)” has an MIC of 2 mg/L [R].
With “Candida tropicalis isolate 293 (ERG11 copies: 2, Erg11p: no key change)” the MIC was 0.12 mg/L [S].
“Candida tropicalis isolate 126 (ERG11 copies: 2, Erg11p: no key change)” showed an MIC of 0.25 mg/L [S].

These test systems were tested with CC[C@H](C)C[C@H](C)CCCCCCCCC(=O)N[C@H]1C[C@@H](O)[C@@H](NCCN)NC(=O)[C@@H]2[C@@H](O)CCN2C(=O)[C@H]([C@H](O)CCN)NC(=O)[C@H]([C@H](O)[C@@H](O)c2ccc(O)cc2)NC(=O)[C@@H]2C[C@@H](O)CN2C(=O)[C@H]([C@@H](C)O)NC1=O [caspofungin] (assay: CLSI broth microdilution.).
With “Candida tropicalis isolate 24 (ERG11 copies: 2, Erg11p: Y132F, S154F (homozygous))” the MIC was 0.25 mg/L [S].
Test System “Candida tropicalis isolate 213 (ERG11 copies: 2, Erg11p: no key change)” has an MIC of 0.03 mg/L [S].
With “Candida tropicalis isolate 118 (ERG11 copies: 2, Erg11p: no key change)” the MIC was 0.03 mg/L [S].
For “Candida tropicalis isolate 158 (ERG11 copies: 2, Erg11p: no key change)”, the MIC was 0.03 mg/L [S].
Test System “Candida tropicalis isolate 284 (ERG11 copies: 6, Erg11p: Y132F, S154F (heterozygous))” has an MIC of 0.015 mg/L [S].
“Candida tropicalis isolate 373 (ERG11 copies: 2, Erg11p: no key change)” gave an MIC of 0.03 mg/L [S].
In the case of “Candida tropicalis isolate 261 (ERG11 copies: 8, Erg11p: Y132F, S154F (heterozygous))”, the MIC is reported as 0.03 mg/L [S].
With “Candida tropicalis isolate 394 (ERG11 copies: 2, Erg11p: no key change)” the MIC was 0.03 mg/L [S].
Test System “Candida tropicalis isolate 408 (ERG11 copies: 2, Erg11p: no key change)” has an MIC of 0.03 mg/L [S].
In the case of “Candida tropicalis isolate 289 (ERG11 copies: 2, Erg11p: no key change)”, the MIC is reported as 0.06 mg/L [S].
With “Candida tropicalis isolate 342 (ERG11 copies: 2, Erg11p: no key change)” the MIC was 0.03 mg/L [S].
With “Candida tropicalis isolate 315 (ERG11 copies: 2, Erg11p: no key change)” the MIC was 0.25 mg/L [S].
For “Candida tropicalis isolate 243 (ERG11 copies: 2, Erg11p: no key change)”, the MIC was 0.12 mg/L [S].
“Candida tropicalis isolate 51 (ERG11 copies: 2, Erg11p: no key change)” was tested, and the MIC was 0.015 mg/L [S].
Work on “Candida tropicalis isolate 160 (ERG11 copies: 2, Erg11p: no key change)” yielded an MIC of 0.03 mg/L [S].
Test System “Candida tropicalis isolate 202 (ERG11 copies: 2, Erg11p: no key change)” has an MIC of 0.015 mg/L [S].
For “Candida tropicalis isolate 128 (ERG11 copies: 2, Erg11p: no key change)”, the MIC was 0.06 mg/L [S].
“Candida tropicalis isolate 348 (ERG11 copies: 2, Erg11p: no key change)” showed an MIC of 0.03 mg/L [S].
